Assay results as given in PubChem BioAssay AID504332 (National Center for Advancing Translational Sciences (NCATS), 2011).
The campaign covered roughly 350,000 compounds. About 31,000 (8.9%) were called active. The inconclusive results got no clear call from the source; some entries with a clear call stand among them for comparison. Calls come from the whole dose curve; as a rule, active = well fitted inhibition curve with a large enough effect; inconclusive = small, poorly fitted or top-dose-only effect; inactive = no such curve, though single readings can be large or run the other way. Potencies of inconclusive entries are doubtful fits and often do not repeat.

Each compound was assayed against Histone-lysine N-methyltransferase EHMT2 (Homo sapiens) (UniProt Q96KQ7) (assay: qHTS Assay for Inhibitors of Histone Lysine Methyltransferase G9a). Details: G9a H3K9 monomethylation, AlphaScreen, 2 h; activity, negative = inhibition: at 59 µM (top of the series) unless noted.
Outline: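 Chemiluminescent proximity detection of H3K9 monomethylation, read after 10 min bead incubation in the dark. Reaction: 20 nM G9a, 500 nM biotin-H3K9 peptide, 20 uM SAM cofactor, 2 h, room temperature, following 15 min enzyme-compound preincubation.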
% is set by controls: 0 for no effect and ±100 for the full control effect; potency is the fitted concentration of half-maximal effect; tags give direction and shape of the fitted curve.
Note: nearly all actives have a fitted effect of over 75% in size.

Sequence of UniProt Q96KQ7 (Q96KQ7 whole entry, looked up): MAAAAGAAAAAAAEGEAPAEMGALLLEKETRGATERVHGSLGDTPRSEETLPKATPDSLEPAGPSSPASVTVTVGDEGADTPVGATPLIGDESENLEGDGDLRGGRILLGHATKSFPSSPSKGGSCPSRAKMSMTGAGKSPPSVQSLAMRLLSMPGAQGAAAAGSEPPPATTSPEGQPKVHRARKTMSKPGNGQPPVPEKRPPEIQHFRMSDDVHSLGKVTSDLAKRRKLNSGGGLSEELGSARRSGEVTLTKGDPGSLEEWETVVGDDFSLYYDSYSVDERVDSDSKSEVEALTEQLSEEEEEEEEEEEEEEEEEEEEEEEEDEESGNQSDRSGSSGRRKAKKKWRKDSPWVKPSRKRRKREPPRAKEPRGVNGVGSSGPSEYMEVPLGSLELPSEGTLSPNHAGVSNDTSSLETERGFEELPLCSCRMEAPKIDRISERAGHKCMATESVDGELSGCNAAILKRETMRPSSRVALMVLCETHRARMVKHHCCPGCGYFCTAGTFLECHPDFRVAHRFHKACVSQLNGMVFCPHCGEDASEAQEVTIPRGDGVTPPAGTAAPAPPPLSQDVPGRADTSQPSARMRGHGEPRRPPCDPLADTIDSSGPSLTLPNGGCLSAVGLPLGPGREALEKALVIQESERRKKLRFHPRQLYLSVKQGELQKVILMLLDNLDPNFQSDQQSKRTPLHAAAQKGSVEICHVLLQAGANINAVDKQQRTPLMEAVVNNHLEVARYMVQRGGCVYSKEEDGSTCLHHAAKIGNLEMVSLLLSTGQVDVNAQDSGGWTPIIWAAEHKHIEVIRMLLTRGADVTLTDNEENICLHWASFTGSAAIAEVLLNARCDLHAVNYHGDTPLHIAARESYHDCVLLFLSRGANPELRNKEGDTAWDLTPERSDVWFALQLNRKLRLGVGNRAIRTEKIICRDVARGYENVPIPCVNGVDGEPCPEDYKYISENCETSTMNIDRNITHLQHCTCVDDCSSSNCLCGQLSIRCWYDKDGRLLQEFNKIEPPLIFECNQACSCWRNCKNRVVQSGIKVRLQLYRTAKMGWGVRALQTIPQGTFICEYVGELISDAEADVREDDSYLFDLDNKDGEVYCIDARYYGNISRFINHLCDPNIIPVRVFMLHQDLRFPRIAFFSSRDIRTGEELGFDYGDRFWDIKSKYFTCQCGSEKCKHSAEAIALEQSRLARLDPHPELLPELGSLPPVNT

Row | Compound | Potency | activity, negative = inhibition
1 | Cc1cccc(C)c1OCC(=O)N(Cc1ccccc1F)C1CCS(=O)(=O)C1 (centres undefined) | inactive | 
2 | COc1ccc(NC(C)=O)cc1NC(=O)CN1CCN(c2ccccn2)CC1 | inconclusive: 50.1 µM [inhibitor, partial curve, poor fit] | 
3 | CCCCN(C(=O)c1cccc(-n2cccc2)c1)c1c(N)n(CCC)c(=O)[nH]c1=O |  | inactive: 3.82% [at 0.501 µM]
4 | CCOC(=O)c1c(NC(=O)/C(C#N)=C/c2ccc(OC)cc2)sc2c1CCC2 | inactive | 
5 | CCOCCCNC(=S)Nc1ccc2nc(N3CCCC3)cc(C)c2c1 | inconclusive: 25.1 µM [inhibitor, single point] | 
6 | CCOC(=O)C1CCCN(C(=O)/C=C/c2cccc([N+](=O)[O-])c2)C1 (centres undefined) | inconclusive: 8.91 µM [inhibitor, single point] | 
7 | CSc1nsc(NC(=O)CCNC(=O)c2ccc([N+](=O)[O-])cc2)n1 | inconclusive: 79.4 µM [inhibitor, single point] | 
8 | CCOc1ccccc1NC(C)C(=O)NC(=O)NC1CCCCC1 (centres undefined) | inconclusive: 22.4 µM [inhibitor, single point] | 
9 | CC/C(C)=N/Nc1nc2sc3c(c2c(=O)[nH]1)CC(C)(C)OC3 | inconclusive: 7.94 µM [inhibitor, full curve, poor fit] | 
10 | O=C(NCc1ccco1)c1ccc(-c2ccccc2Cl)o1 | active: 56.2 µM | 
11 | COc1ccc(Cl)cc1-n1c(C)cc(C=O)c1C | inconclusive: 6.31 µM [inhibitor, single point] | 
12 | COc1ccc(S(=O)(=O)N(CC(=O)Nc2ccc(OC)cc2OC)c2ccc(Cl)cc2)cc1 | inactive | 
13 | Cc1ccc(-n2c(=S)[nH]c3c(oc4ccccc43)c2=O)cc1 | inconclusive: 79.4 µM [inhibitor, single point] | 
14 | O=C(Nc1ccc(C(=O)N2CCN(c3ccc(Cl)cc3)CC2)cc1)C1=CSCCO1 | inactive | 
15 | Cc1ccc(C(=O)NC(=S)Nc2ccccc2C(F)(F)F)cc1 | inactive | 
16 | Cc1c(C(=O)OC2CCCC2C)[nH]c2c1C(=O)CCC2 (centres undefined) | inconclusive: 79.4 µM [inhibitor, partial curve, poor fit] | 
17 | CCOC(=O)N1CCC(N2Cc3cccc(C(=O)NCc4ccc(OC)cc4)c3C2=O)CC1 | inactive | 
18 | Cc1ccc(Cn2nnc3c(=O)[nH]c(C4CCN(C(=O)c5cccs5)CC4)nc32)cc1 | inconclusive: 17.8 µM [inhibitor, partial curve, poor fit] | 
19 | O=C1CC(N2CCOCC2)C(=O)N1c1cccc(Cl)c1 (centres undefined) | active: 44.7 µM | 
20 | COc1ccc(N2CCN(c3ccc(N4C(=O)CC(C)C4=O)cc3[N+](=O)[O-])CC2)cc1 (centres undefined) | active: 39.8 µM | 
21 | COCCN1C(=O)C(=O)/C(=C(/O)c2ccc(S(=O)(=O)N3CCCCC3)cc2)C1c1ccc(O)c(OC)c1 (centres undefined) | active: 70.8 µM | 
22 | COC(=O)NC(NC(=S)Nc1ccc([N+](=O)[O-])cc1)C(Cl)(Cl)Cl (centres undefined) | active: 10 µM | 
23 | Cc1cccc(N2CC(c3nc4ccc(C)cc4[nH]3)CC2=O)c1 (centres undefined) | inactive | 
24 | O=C(Cc1cccs1)NNC(=O)c1ccc(F)cc1 | inconclusive: 1.41 µM [inhibitor, full curve] | 
25 | NS(=O)(=O)c1ccc(NC(=O)Cc2cccs2)cc1 | inactive | 

Row | Compound | Potency | activity, negative = inhibition
26 | CC(=O)N1CCN(S(=O)(=O)c2ccc(S(=O)(=O)NC3CC3)cc2)CC1 | inactive | 
27 | CCc1ccc(OCC(=O)Nc2nnc(-c3ccco3)s2)cc1 | inconclusive: 10 µM [inhibitor, partial curve, poor fit] | 
28 | COc1cc2[nH]c(=S)nc(NCc3ccccc3)c2cc1OC | inconclusive: 89.1 µM [inhibitor, single point] | 
29 | CCOc1ccc(C(=O)NCc2cccnc2)cc1 | inactive | 
30 | CN(C)c1ccc(N=Nc2cccc(F)c2)cc1 | active: 10 µM | 
31 | COc1ccc(-c2nc(SCC(=O)c3ccc(Br)cc3)n[nH]2)cc1 | inconclusive: 39.8 µM [inhibitor, partial curve, poor fit] | 
32 | CCOc1ccc(N=C2Sc3nc4ccc(C)cc4cc3CN2CCOC)cc1 | inconclusive: 89.1 µM [inhibitor, partial curve, poor fit] | 
33 | O=C1/C(=C\Nc2ccccc2)CCN1c1ncccn1 | active: 50.1 µM | 
34 | CC(/C=N/NC(=O)c1cc(-c2ccccc2)nc2ccccc12)=C\c1ccco1 | inconclusive: 25.1 µM [inhibitor, single point] | 
35 | C=CCc1cccc(/C=N/n2c(C)nnc2C)c1O |  | inactive: 30.5% [at 0.501 µM]
36 | Cc1ccc(/C=C/C(=O)N2CCCC(C(N)=O)C2)o1 (centres undefined) | active: 56.2 µM | 
37 | Cn1ccc2cc(S(=O)(=O)N3CCCC(C(=O)NCc4ccc(F)cc4)C3)ccc21 (centres undefined) | inactive | 
38 | COc1ccc(C)cc1NC(=O)Nc1cccc(C)c1 | inconclusive: 4.47 µM [inhibitor, partial curve, poor fit] | 
39 | O=C1Cc2cc(S(=O)(=O)Nc3ccc(F)cc3Cl)ccc2N1 | inconclusive: 28.2 µM [inhibitor, single point] | 
40 | Fc1cccc(Cl)c1/C=N/Nc1c(Cl)cncc1Cl | inactive | 
41 | O=C(C1CCN(Cc2ccccc2)CC1)N1CCN(C/C=C/c2ccccc2)CC1 | active: 14.1 µM | 
42 | CCOc1ccc(NC(=S)NCc2ccc3c(c2)OCO3)cc1 | active: 10 µM | 
43 | O=C(N/C(=C/c1ccco1)C(=O)N1CCCCCC1)c1cccs1 | inconclusive: 44.7 µM [inhibitor, partial curve, poor fit] | 
44 | O=c1cnnc(Nc2ccc(Cl)c(C(F)(F)F)c2)[nH]1 | inactive | 
45 | N#Cc1cccc(NC(=O)C2CCN(c3cnccn3)CC2)c1 | inactive | 
46 | O=C(CSc1nc(-c2ccc(F)cc2)nc2c1Cc1ccccc1O2)Nc1cccc(C(=O)O)c1 | active: 7.94 µM | 
47 | CCOC(=O)C1=C(C(F)(F)F)Nc2ncnn2C1c1cc(OC)ccc1OC (centres undefined) | inconclusive: 79.4 µM [inhibitor, partial curve, poor fit] | 
48 | COCC(C)NS(=O)(=O)c1ccc(C)cc1 (centres undefined) | inconclusive: 31.6 µM [inhibitor, single point] | 
49 | COC(=O)c1ccc(C2C=C(c3ccc(Cl)cc3)Nc3nc4ccccc4n32)cc1 (centres undefined) | inconclusive: 39.8 µM [inhibitor, single point] | 
50 | O=C(NC1CCCC1)c1ccc(CS(=O)Cc2ccccc2Cl)o1 (centres undefined) | inconclusive: 70.8 µM [inhibitor, single point] | 

Row | Compound | Potency | activity, negative = inhibition
51 | COc1ccc(O)c(N)c1 | active: 7.94 µM | 
52 | CCc1ccccc1NC(=S)Nc1cc(OC)c(NC(=O)C(C)C)cc1OC | inconclusive: 89.1 µM [inhibitor, single point] | 
53 | O=C(COC(=O)c1ccccc1O)NCCCc1ccccc1 | inactive | 
54 | Cc1cc(C)n(CC(C)NCc2cn[nH]c2-c2cccc3ccccc23)n1 (centres undefined) | inconclusive: 89.1 µM [inhibitor, partial curve, poor fit] | 
55 | CCOc1ccc(C2CC(=O)NC2=O)cc1 (centres undefined) | inactive | 
56 | CCOc1cc(/C=N/Nc2nc(Nc3ccccc3)nc(N3CCCCC3)n2)ccc1OCC(=O)O | inconclusive: 89.1 µM [inhibitor, partial curve, poor fit] | 
57 | NC(=O)C(=O)N/N=C/c1c2ccccc2cc2ccccc12 | inconclusive: 89.1 µM [inhibitor, single point] | 
58 | CCc1cc2c(cc3c(=O)n(CC(=O)NC4CCCCC4)nc(CC)n32)s1 | inconclusive: 28.2 µM [inhibitor, partial curve, poor fit] | 
59 | Cc1ccc(NC(=S)N(CCN2CCCCC2)Cc2ccco2)cc1 | inconclusive: 89.1 µM [inhibitor, single point] | 
60 | Cc1ccc(-n2cc3c(c2-c2ccccc2Br)c(=O)n(C)c(=O)n3C)cc1N | inconclusive: 17.8 µM [inhibitor, single point] | 
61 | O=C(CCNS(=O)(=O)c1ccc(OC(F)(F)F)cc1)N1CCN(C/C=C/c2ccccc2)CC1 | inactive | 
62 | Clc1ccc(-c2nc(NCCN3CCOCC3)c3ccccc3n2)cc1 | inconclusive: 70.8 µM [inhibitor, single point] | 
63 | CCCn1c(=O)c2ccccc2n2c(SCC(=O)c3ccccc3)nnc12 | inconclusive: 3.16 µM [inhibitor, partial curve, poor fit] | 
64 | Nn1c(SCC(=O)Nc2nccs2)nnc1-c1ccccn1 | inconclusive: 35.5 µM [inhibitor, single point] | 
65 | Cn1c(CN2CCOCC2)nc2cc(NC(=O)COc3ccccc3)ccc21 | inactive | 
66 | Cc1cccc(C(=O)Nc2cccc(OCc3cc(=O)n4cc(C)sc4n3)c2)c1 | inactive | 
67 | Cc1ccc(C(C)C)c(OCC(=O)NCC2(N3CCOCC3)CCCCC2)c1 | inactive | 
68 | NC1=NC2(CCCCC2)N=C(Nc2ccc(F)cc2F)N1 |  | inactive: 28.2% [at 0.501 µM]
69 | CC(C)n1cc2c(c1-c1ccccc1Cl)c(=O)n(C)c(=O)n2C | inconclusive: 31.6 µM [inhibitor, single point] | 
70 | CCOc1ncccc1C(=O)OCC(=O)Nc1cc(C(=O)OC)ccc1C(=O)OC | inconclusive: 89.1 µM [inhibitor, partial curve, poor fit] | 
71 | CN=c1scc(C)n1/N=C/c1ccc(O)c(O)c1O | inconclusive: 2.51 µM [inhibitor, partial curve, poor fit] | 
72 | COc1cc(O)c(NC(C)=O)c2nonc12 | active: 22.4 µM | 
73 | CC(=O)C1=C(O)C(=O)N(CCC(=O)O)C1c1ccc(Cl)cc1Cl (centres undefined) | inconclusive: 8.91 µM [inhibitor, partial curve, poor fit] | 
74 | CC(=O)NC(O)C(=O)c1ccccc1 (centres undefined) | inconclusive: 79.4 µM [inhibitor, partial curve, poor fit] | 
